# The whole screen tested about 310,000 compounds, of which about 2,200 (0.71%) showed an effect of 50% or more. The effect is printed as a negative number. Some of the results follow.
# Molecular target: human ether-à-go-go-related gene (hERG) potassium channel (human, UniProt Q12809)
# Assay: primary screen, population patch clamp on CHO cells stably expressing hERG
# human ether-à-go-go-related gene (hERG) potassium channel, sequence (Q12809 whole entry, looked up): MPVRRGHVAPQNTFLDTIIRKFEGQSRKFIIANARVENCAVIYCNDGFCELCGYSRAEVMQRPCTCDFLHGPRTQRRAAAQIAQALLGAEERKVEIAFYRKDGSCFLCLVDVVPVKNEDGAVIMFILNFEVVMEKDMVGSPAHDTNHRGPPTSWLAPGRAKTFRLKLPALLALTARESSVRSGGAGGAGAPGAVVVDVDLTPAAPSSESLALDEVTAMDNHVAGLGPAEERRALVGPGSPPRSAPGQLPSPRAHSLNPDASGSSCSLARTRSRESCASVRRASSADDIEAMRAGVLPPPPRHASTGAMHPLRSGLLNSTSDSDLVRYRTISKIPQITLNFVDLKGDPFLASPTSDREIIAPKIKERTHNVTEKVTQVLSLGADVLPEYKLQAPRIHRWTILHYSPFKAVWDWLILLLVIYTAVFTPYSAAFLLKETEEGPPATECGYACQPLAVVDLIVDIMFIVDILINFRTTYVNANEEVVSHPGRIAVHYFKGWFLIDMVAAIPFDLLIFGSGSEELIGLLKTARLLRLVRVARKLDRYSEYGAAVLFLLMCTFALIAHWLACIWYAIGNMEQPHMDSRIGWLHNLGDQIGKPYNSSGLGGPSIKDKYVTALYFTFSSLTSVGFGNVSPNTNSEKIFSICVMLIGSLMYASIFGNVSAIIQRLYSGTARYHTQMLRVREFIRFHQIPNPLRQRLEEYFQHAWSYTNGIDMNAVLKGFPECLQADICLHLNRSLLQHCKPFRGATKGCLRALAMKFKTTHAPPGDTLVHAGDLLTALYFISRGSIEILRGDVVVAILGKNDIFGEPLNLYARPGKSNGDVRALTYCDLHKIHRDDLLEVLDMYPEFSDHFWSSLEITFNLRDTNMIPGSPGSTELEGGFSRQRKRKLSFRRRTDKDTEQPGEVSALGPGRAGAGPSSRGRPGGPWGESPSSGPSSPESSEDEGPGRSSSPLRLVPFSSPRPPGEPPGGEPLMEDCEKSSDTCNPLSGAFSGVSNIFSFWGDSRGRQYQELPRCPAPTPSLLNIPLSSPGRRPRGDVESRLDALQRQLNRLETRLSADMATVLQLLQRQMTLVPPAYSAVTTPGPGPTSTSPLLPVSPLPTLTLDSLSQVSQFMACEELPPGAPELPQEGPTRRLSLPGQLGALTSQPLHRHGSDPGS
row,Structure (SMILES),"hERG current change (%, negative = inhibition) at 1uM [%]"
1,COCCCNC(=S)N1CCN(c2nc(C)nc3sc4c(c23)CCCC4)CC1,17.4
2,O=C(CSc1nnc(-c2ccco2)o1)NC(=O)Cc1ccccc1,8.2
3,Cc1ccc(CSc2nc3c(cc2C#N)CCC3)cc1,8.07
4,COc1ccc(N2CCN(Cc3nc(-c4ccc(Cl)cc4Cl)no3)CC2)cc1,6.92
5,O=C(NCc1ccco1)C(c1ccccc1)N(Cc1ccccc1)C(=O)Cn1nnc2ccccc21 (centres unmarked),10.1
6,Cc1cc2ccccc2n1CCNC(=O)c1cccs1,11.5
7,CS(=O)(=O)N(CC(=O)NCc1ccco1)c1cc(C(F)(F)F)ccc1Cl,5.01
8,COc1ccc(Cl)cc1S(=O)(=O)N1CCCc2ccccc21,4.35
9,CCOC(=O)CCCCC(=O)c1[nH]c(=O)[nH]c1Cn1ccnc1,12.6
10,COc1ccc(C(=O)NNC(=O)C(=O)Nc2cccc3ccccc23)cc1,14.5
11,CN1CCN(C(CNS(=O)(=O)c2ccc([N+](=O)[O-])cc2)c2ccc(F)cc2)CC1 (centres unmarked),-40.1
12,CCCCCn1c(SCCN2CCOCC2)nc2c1c(=O)[nH]c(=O)n2C,-40.7
13,O=C(COC(=O)c1nc(Cl)c(Cl)c(Cl)c1Cl)NCc1ccccc1,3.59
14,O=C(O)c1[nH]c2ccccc2c1C(c1c(F)cccc1Cl)c1c(C(=O)O)[nH]c2ccccc12,11.6
15,O=C(NCCC1CCCCN1S(=O)(=O)c1ccccc1)C(=O)NCc1ccncc1 (centres unmarked),11.9
16,Cc1ccc(C(=O)/C=C/c2ccccc2)o1,6.95
17,CCOC(=O)c1cccc(C2=CC(=O)C[C@H](c3ccc(OC)cc3)C2)c1,12.4
18,COc1ccc2[nH]c(C)c(CCNC(=S)Nc3ccc(F)cc3)c2c1,3.08
19,COc1ccc(C)cc1S(=O)(=O)N(CC(=O)O)c1ccc(C)cc1,19.4

row,Structure (SMILES),"hERG current change (%, negative = inhibition) at 1uM [%]"
1,CCOCC(=O)Nc1ccc(OCc2ccccc2)cc1,8.81
2,Cc1ccc(C(=O)Nc2cccc(NC(=O)c3cccs3)c2)c(C)c1,8.47
3,O=C(CNCC1CCCO1)N1CCN(S(=O)(=O)c2ccc3ccccc3c2)CC1.O=C(O)C(=O)O (centres unmarked),2.41
4,Cc1cccc(C)c1NC(=O)c1c(-c2ccccc2)noc1C,0.262
5,CC1C2Cn3c(nc4ccccc43)C1N(C(C)C)O2 (centres unmarked),9.32
6,O=C(O)CCCC(=O)N1CCN(C(c2ccccc2)c2ccccc2)CC1,5.16
7,COC(=O)c1cc(NC(=O)CC2NC3CCCCC3NC2=O)cc(C(=O)OC)c1 (centres unmarked),-4.52
8,O=c1c2ccccc2nnn1CSc1nnc(-c2ccc3c(c2)OCO3)o1,9.38
9,O=C(COc1ccccc1)NC(=S)Nc1cccc2cc(O)ccc12,6.78
10,O=C(O)c1ccccc1.OC(CNCC1CCCO1)Cn1c2ccc(Cl)cc2c2cc(Cl)ccc21 (centres unmarked),7
11,CC1=C(C(N)=O)C(c2cccs2)n2nc(-c3cccc(Cl)c3)nc2N1 (centres unmarked),6.41
12,CCN(CC)S(=O)(=O)c1cccc(-c2n[nH]c(=S)n2/N=C/c2ccc(Br)cc2)c1,11
13,CC(/C=C1\SC(=S)N(CCCC(=O)Nc2ccc(C(=O)O)c(O)c2)C1=O)=C\c1ccccc1,13.3
14,CC(C)(C)OC(=O)NCCc1nnc(SCC(N)=O)o1,7.47
15,CCCCNC(=O)Nc1cnn(CC)c1C(N)=O,11.3
16,COc1ccccc1CNC(=O)c1ccc2nc(N3CCOCC3)sc2c1,-3.47
17,CC1CCN(c2ccc(C=O)o2)CC1,9.04
18,COc1ccc(N(C(=O)Cn2nnc3ccccc32)C(C(=O)NCc2ccco2)c2ccc(C)o2)cc1 (centres unmarked),4.86
19,CN(C)C(=O)CSc1nc2ccc(C(=O)c3ccccc3)cc2[nH]1,12.3

row,Structure (SMILES),"hERG current change (%, negative = inhibition) at 1uM [%]"
1,CCCc1nn(C)c(C(=O)Nc2ccc(CC)cc2)c1Cl,10.7
2,O=C(CCCCCn1c(=S)[nH]c2cc3c(cc2c1=O)OCO3)N1CCN(c2ccccc2)CC1,18.1
3,COc1ccc(C(=O)NCc2nnc(SCC(=O)Nc3cc(Cl)ccc3OC)o2)cc1,-1.85
4,Cc1c(Cc2ccccc2)c(=O)oc2cc(OC(=O)c3ccccc3)ccc12,17.4
5,CC(NC(=O)Cn1c(NCCO)nc2ccccc21)C1CC2CCC1C2 (centres unmarked),10.5
6,Cc1c(C(=O)N2CCN(c3ccccc3)CC2)oc2c(Cl)cccc12,9.8
7,COc1cccc(S(=O)(=O)N2CCN(Cc3ccc4c(c3)OCO4)CC2)c1,13.7
8,COc1ccc2c(c1)C1=NN(/C(C)=C/C(C)=O)C(c3cccc(F)c3)C1CC2 (centres unmarked),8.01
9,COc1cc(C(=O)Nc2ccc(NC(=O)C3CC3)nc2)cc(OC)c1OC,8.4
10,CC1CN(Cc2cc(=O)oc3cc(O)ccc23)CC(C)O1 (centres unmarked),7.89
11,CCNc1nc(NCC)nc(Oc2ccc(C(=O)OC)cc2)n1,8.78
12,CN(C)C=NC(=O)/C(C#N)=C1\CCc2ccccc2N1,0.195
13,Cl.N[C@@H](Cc1ccccc1)c1nnc(SCc2ccccc2Cl)o1,-9.74
14,Cc1cc(C)nc(NC(=O)/C=C/c2ccc(Cl)cc2)n1,3.87
15,Cc1ccc(NC(=O)c2ccc(Oc3ncccn3)cc2)cc1,9.38
16,CC(C)(C)NCC(O)COc1ccc(Br)cc1.Cl (centres unmarked),3.17
17,CC1(C)C(C=C(Cl)Cl)C1C(=O)N/N=C/c1ccccc1F (centres unmarked),13.6
18,Cc1cc(=O)oc2c(C)c(OC(C)C(=O)NCC3CCC(C(=O)O)CC3)ccc12 (centres unmarked),12.4
